Z-score data for 69 compounds are collected here from PubChem BioAssay AID488969 (Vanderbilt High Throughput Screening Facility, 2010).

Over roughly 110,000 compounds, “z-score” has its median near -0.1; the highest 2% begin near 2. The list shows a part of the results.

This experiment addresses Metabotropic glutamate receptor 8 (Rattus norvegicus) (UniProt P70579). Description: mGluR8 Gi/Go-coupled signaling modulation – cell-based, rat, thallium flux, HTS, primary screen (AID 488969). Conditions: HEK293 rat mGluR8, GIRK (G protein-gated inwardly rectifying potassium channel) thallium flux, FluoZin2; at 10 µM; stronger effect = higher value; submaximal glutamate (EC20) added with thallium.
Chain of UniProt P70579 (P70579 whole entry, looked up): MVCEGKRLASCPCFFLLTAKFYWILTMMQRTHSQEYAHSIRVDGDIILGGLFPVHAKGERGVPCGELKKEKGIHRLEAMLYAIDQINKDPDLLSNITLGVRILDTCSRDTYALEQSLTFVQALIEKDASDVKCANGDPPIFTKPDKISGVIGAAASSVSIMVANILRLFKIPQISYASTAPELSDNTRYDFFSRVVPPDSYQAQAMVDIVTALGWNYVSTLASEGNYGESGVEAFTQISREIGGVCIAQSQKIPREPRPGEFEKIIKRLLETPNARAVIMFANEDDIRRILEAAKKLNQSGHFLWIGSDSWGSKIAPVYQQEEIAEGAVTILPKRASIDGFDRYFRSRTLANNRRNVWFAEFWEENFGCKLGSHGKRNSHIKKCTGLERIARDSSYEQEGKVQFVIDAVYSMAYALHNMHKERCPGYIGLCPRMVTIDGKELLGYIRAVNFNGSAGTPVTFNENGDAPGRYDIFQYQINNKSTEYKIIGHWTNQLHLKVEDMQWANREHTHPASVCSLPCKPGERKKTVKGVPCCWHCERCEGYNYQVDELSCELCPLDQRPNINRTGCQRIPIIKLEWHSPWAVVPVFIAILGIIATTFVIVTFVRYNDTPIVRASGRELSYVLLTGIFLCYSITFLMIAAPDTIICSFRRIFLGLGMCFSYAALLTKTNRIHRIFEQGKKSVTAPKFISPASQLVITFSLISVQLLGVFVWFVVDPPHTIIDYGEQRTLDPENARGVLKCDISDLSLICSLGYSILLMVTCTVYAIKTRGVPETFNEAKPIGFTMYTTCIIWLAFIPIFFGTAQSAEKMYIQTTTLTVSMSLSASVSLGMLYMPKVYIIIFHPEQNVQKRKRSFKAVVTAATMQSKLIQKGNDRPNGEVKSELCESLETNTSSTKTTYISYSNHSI
Take `CC(C)OC(=O)c1cccc(C(=O)Oc2ccc(Br)cc2)n1`: the z-score is -0.331.

Take `COC(=O)c1cc(Br)c(=O)n(-c2cccc(F)c2)c1`: the z-score was -0.0201.

Take `Cc1ccc(S(=O)(=O)/N=C(/NC(=S)Nc2cccc(C)c2)c2ccccc2)cc1`: the z-score was found to be 0.579.

On to `Cc1ccc(SCc2nc(-c3ccncc3)no2)cc1`, for which the z-score is -0.289.

`Cc1nn(C(=O)N2CCOCC2)c(C)c1C`: the z-score turned out to be 0.408.

`Cc1ccc(OCCOc2cccc(Br)c2)c([N+](=O)[O-])n1`: the z-score was -0.456.

With `CC1(C)Oc2ccc(C(=O)NC3CCCC3)cc2N(CC(=O)NC2CCCC2)C1=O`, the z-score was -0.495.

Take `COc1ccc(C2CC2/C(C)=N/OC(=O)c2cccs2)cc1` (centres undefined): the z-score was -1.24.

Regarding `CCOC(=O)N1CCN(c2c(NCc3ccc(N(C)C)cc3)c(=O)c2=O)CC1`, the z-score is -0.142.

`Cc1ccccc1NC(=O)C(NS(=O)(=O)c1ccc2c(c1)c(=O)n(C)c(=O)n2C)c1ccccc1` (centres undefined): the z-score is -0.00301.

Turning to `CCOc1ccccc1NC(=O)COC(=O)C(CC(C)C)N1C(=O)C2CC=CCC2C1=O` (centres undefined), the z-score was -0.869.

Compound `O=C(NC(=S)NCCN1CCOCC1)c1ccccc1Br` yielded a z-score of 0.00751.

As to `O=C(Nc1ccc2nc(-c3ccccc3)oc2c1)c1ccco1`, the z-score was -0.126.

As to `COC(=O)CC(NC(=O)c1ccc(C)cc1)c1ccc2c(c1)OCO2` (centres undefined), the z-score amounted to 0.306.

As for `Cc1ccc(NC(=O)OCc2cn(-c3ccc(Cl)cc3)nn2)cc1`, the z-score is -0.000325.

The compound `COc1ccc(C2=NN(C(=O)c3cccc([N+](=O)[O-])c3)C(c3cccc([N+](=O)[O-])c3)C2)cc1` (centres undefined) registered a z-score of 0.0474.

The compound `CC1(C)OC(=O)N(Cc2ccco2)C1(C)O` (centres undefined) yielded a z-score of 0.594.

For `Cc1nnsc1C(=O)NC(C)C12CC3CC(CC(C3)C1)C2` (centres undefined), the z-score was -0.0504.

Regarding `O=C(C1=C(O)C(=O)N(Cc2ccccc2)C1c1ccco1)c1ccco1` (centres undefined), the z-score is -1.5.

In turn, `COc1cccc(N2C(=O)CC(N3CCC(c4nc5ccccc5[nH]4)CC3)C2=O)c1` (centres undefined) displayed a z-score of 0.0245.

Compound `CCN(CC)S(=O)(=O)c1ccc(-c2nnc(SCC(=O)c3ccc(OC)cc3)o2)cc1` registered a z-score of 0.208.

With `CCCN1C/C(=C/c2cccc([N+](=O)[O-])c2)C(=O)/C(=C/c2cccc([N+](=O)[O-])c2)C1`, the z-score is -0.883.

In the case of `NC(=S)n1[nH]c(-c2ccc([N+](=O)[O-])cc2)c(N=Nc2ccc(O)cc2)c1=O`, the z-score was found to be 0.0796.

In the case of `Cc1ccc(COn2c(-c3ccc(Cl)cc3Cl)nc3ncccc32)cc1`, the z-score was -1.37.

In the case of `CCCCN(C(=O)CC(c1ccccc1)c1ccccc1)c1c(N)n(CCC)c(=O)[nH]c1=O`, the z-score was -0.288.

As to `COCCn1c(=O)[nH]c(=O)c2c(C(F)(F)F)cc(-c3cccs3)nc21`, the z-score is -0.821.

Consider `Cc1cc2cc(OCC(=O)O)ccc2n1C`, for which the z-score was 0.494.

As to `CC(=O)NC1CC2CCCC(C1)N2S(=O)(=O)c1ccccc1` (centres undefined), the z-score was -0.0145.

Compound `CC1CN(C(c2cccs2)c2sc3ncnn3c2O)CC(C)O1` (centres undefined) yielded a z-score of 0.26.

In the case of `Cc1cc(NC(=O)c2ccc(C)s2)n(-c2ccccc2)n1`, the z-score came to 0.239.

Take `Cc1ccc(S(=O)(=O)N/N=C\c2cc3c(cc2[N+](=O)[O-])OCO3)cc1`: the z-score was 0.0514.

The compound `O=C(O)c1ccc2c(c1)N(Cc1ccccc1F)C(=O)c1ccccc1S2=O` (centres undefined) yielded a z-score of 0.0828.

As for `CCCCCOc1ccc(NC(=O)C(=O)NCCCn2ccnc2)cc1`, the z-score is -0.188.

With `O=C(Nc1ccccc1C(=O)Nc1ccc2c(c1)OCO2)c1ccco1`, the z-score was -0.558.

Take `COc1ccc(CNC(=O)CSc2n[nH]c(C)c2[N+](=O)[O-])cc1`: the z-score was -0.119.

`CC1=CC(=NOC(=O)/C=C/c2ccccc2)C=C(C)C1=O`: the z-score is -0.325.

Consider `O=C(NC(Nc1nc2ccc([N+](=O)[O-])cc2s1)(C(F)(F)F)C(F)(F)F)c1cccnc1`, for which the z-score was 0.978.

Regarding `COc1ccccc1C(=O)Nc1ccc2c(c1)nc1n2CCSC1`, the z-score was -0.665.

Take `O=C(c1ccncc1)c1ccc(NS(=O)(=O)c2ccc(Br)s2)cc1`: the z-score is -0.141.

Compound `OCCNCCCCOc1ccc(F)cc1` gave a z-score of 0.17.

With `Cc1ccc(O)c(NC(=O)c2ccco2)c1`, the z-score is -0.223.

Turning to `CCOc1ccc2cc(C#N)c(SCC(=O)N3CCC(C)CC3)nc2c1`, the z-score was -0.375.

In the case of `C/C(=N\NC(=S)Nc1ccc(F)cc1)C1CC1`, the z-score was -0.155.

`Cc1ccc(NC(=O)C2CCN(S(=O)(=O)c3cccs3)CC2)cc1C` yielded a z-score of 0.256.

With `Cc1ccc(S(=O)(=O)/N=S(\C)CC2CC2(Cl)Cl)cc1` (centres undefined), the z-score was -0.129.

Take `C=C(C)C1Cc2c(C)nn(-c3nc(C)cc(C)n3)c2C1` (centres undefined): the z-score was -0.968.

For `CCCc1nc2sc(C(=O)OCC)c(N)c2c2c1COC(C)(C)C2`, the z-score is -0.0164.

In turn, `CCOC(=O)CCCNC(=O)CCCNC(=O)C(c1ccccc1)c1ccccc1` yielded a z-score of 0.296.

`CCN1CNC(=S)N(C(C)c2ccccc2)C1` (centres undefined): the z-score came to 1.45.

`CC1=C(C(=O)OC(C)(C)C)C(c2cccs2)NC(=O)N1` (centres undefined): the z-score was -0.249.

With `C/C(=N\NC(=O)c1cc(C(C)C)[nH]n1)c1ccco1`, the z-score was found to be 0.342.

With `O=[N+]([O-])c1ccc(Cl)c(/C=N/N2CCN(Cc3ccccc3Cl)CC2)c1`, the z-score was found to be 0.00613.

In the case of `CC(C)(C)c1ccc(C(=O)N2CCN(c3nc4ccccc4o3)CC2)cc1`, the z-score is 0.658.

Take `Cn1c(CCCOc2ccc(Cl)cc2Cl)nnc1SCC(=O)Nc1nccs1`: the z-score is -0.474.

Compound `Cc1n[nH]c(C)c1CCCOc1ccccc1` gave a z-score of 0.185.

Regarding `Cc1ccc(-c2nc3ccccc3n3c(C)nnc23)cc1`, the z-score is -0.0953.

For `COc1ccc(C)cc1NC(=O)C1CCCN1S(=O)(=O)c1ccc2c(c1)CCC(=O)N2` (centres undefined), the z-score is -0.304.

Regarding `CCCCn1c2c(c(=O)n(C)c1=O)C(c1ccc(OC)cc1)N1CCCCCC1=N2` (centres undefined), the z-score is -0.418.

`COc1ccc(-c2csc(NC(C)=O)n2)cc1OC` yielded a z-score of 0.168.

For `Cc1ccc(N(CC(=O)N/N=C/c2cc(C)n(-c3ccccc3)c2C)S(C)(=O)=O)c(C)c1`, the z-score was -0.508.

Regarding `COC(=O)c1cc(=O)nc2sccn12`, the z-score was -0.417.

Consider `Cc1cccc(C)c1N=Cc1c(O)n(-c2nccs2)c(=O)c2ccccc12`, for which the z-score was -1.27.

Regarding `CC[C@H](C)[C@H](NS(=O)(=O)c1ccc(C)cc1)C(=O)N1CCC(C(=O)N[C@@H](C)C(=O)O)CC1`, the z-score was -0.165.

`COc1ccc(Cl)cc1C(=O)n1nc(C)cc1C`: the z-score is -0.95.

Turning to `Cc1ccc(C2(C(F)(F)F)N=C3Sc4cc(C)cc(C)c4N3C(=O)N2)cc1` (centres undefined), the z-score amounted to 0.0193.

Regarding `CC(C)(C)c1ccc(OCC(O)CNC(=O)c2ccccc2C(=O)O)cc1` (centres undefined), the z-score was -0.0202.

`CCCCOc1ccc(Cl)cc1CSc1nnc(C)n1N`: the z-score was -0.255.

Take `CCOc1cc(-c2cc(-c3ccc(OC)cc3)nc(N)c2C#N)ccc1O`: the z-score was -0.483.

In the case of `O=[N+]([O-])c1ccc(C(=S)N2CCN(Cc3ccccc3)CC2)cc1`, the z-score is -0.261.
